Results: US20210238308A1 (Chugai, published 2021)

T1: human TRIM21 PRYSPRY domain with N-terminal 6xHis tag (human)
T1 construct: Expressed from pET28a in E. coli; also called hTRIM21
T1 chain: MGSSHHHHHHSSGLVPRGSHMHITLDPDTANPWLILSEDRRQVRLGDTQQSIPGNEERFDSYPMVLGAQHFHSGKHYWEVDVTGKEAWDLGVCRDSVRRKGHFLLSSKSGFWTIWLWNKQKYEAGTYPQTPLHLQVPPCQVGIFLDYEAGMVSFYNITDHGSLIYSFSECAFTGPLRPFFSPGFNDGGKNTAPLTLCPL

T2: mouse TRIM21 PRYSPRY domain with N-terminal 6xHis tag (mouse)
T2 construct: Expressed from pET28a in E. coli; also called mTRIM21
T2 chain: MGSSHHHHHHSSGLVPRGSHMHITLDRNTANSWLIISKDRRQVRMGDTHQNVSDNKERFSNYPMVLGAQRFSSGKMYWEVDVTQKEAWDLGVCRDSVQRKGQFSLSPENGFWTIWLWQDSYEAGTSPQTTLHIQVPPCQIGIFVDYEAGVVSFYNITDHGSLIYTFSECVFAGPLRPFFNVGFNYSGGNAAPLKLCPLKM


Key:
[1] = target: T1, human TRIM21 PRYSPRY domain with …; test: SPR, Ab captured on Protein L, 100 nM hTRIM21
[2] = target: T2, mouse TRIM21 PRYSPRY domain with …; test: SPR, Ab captured on Protein L, 100 nM mTRIM21
[3] = target: T3, human FcRn (human, UniProt P55899 part only; P61769 part only, limits assumed); test: SPR pH 6.0, Ab captured on Protein L, 1 uM hFcRn
T3 construct: also called hFcRn

| Binder | hTRIM21 binding level ratio (variant/control antibody) [1] | mTRIM21 binding level ratio (variant/control antibody) [2] | hFcRn binding level ratio (variant/control antibody) [3] |
| --- | --- | --- | --- |
| MRAH-G1d/MRAL-KT0 K439M (antibody, human IgG1, kappa) heavy: QVQLQESGPGLVRPSQTLSLTCTVSGYSITSDHAWSWVRQPPGRGLEWIGYISYSGITTYNPSLKSRVTMLRDTSKNQFSLRLSSVTAADTAVYYCARSLARTTAMDYWGQGSLVTVSS[human IgG1 constant region with K439M (EU numbers) omitted here] light: DIQMTQSPSSLSASVGDRVTITCRASQDISSYLNWYQQKPGKAPKLLIYYTSRLHSGVPSRFSGSGSGTDFTFTISSLQPEDIATYYCQQGNTLPYTFGQGTKVEIKRTVAAPSVFIFPPSDEQLKSGTASVVCLLNNFYPREAKVQWKVDNALQSGNSQESVTEQDSKDSTYSLSSTLTLSKADYEKHKVYACEVTHQGLSSPVTKSFNRGEC | 1.09 | 2.2 | 0.92 |
| MRAH-G1d/MRAL-KT0 K439Y (antibody, human IgG1, kappa) heavy: QVQLQESGPGLVRPSQTLSLTCTVSGYSITSDHAWSWVRQPPGRGLEWIGYISYSGITTYNPSLKSRVTMLRDTSKNQFSLRLSSVTAADTAVYYCARSLARTTAMDYWGQGSLVTVSS[human IgG1 constant region with K439Y (EU numbers) omitted here] light: DIQMTQSPSSLSASVGDRVTITCRASQDISSYLNWYQQKPGKAPKLLIYYTSRLHSGVPSRFSGSGSGTDFTFTISSLQPEDIATYYCQQGNTLPYTFGQGTKVEIKRTVAAPSVFIFPPSDEQLKSGTASVVCLLNNFYPREAKVQWKVDNALQSGNSQESVTEQDSKDSTYSLSSTLTLSKADYEKHKVYACEVTHQGLSSPVTKSFNRGEC | 0.984 | 2 | 0.59 |
| MRAH-G1d/MRAL-KT0 Q438D (antibody, human IgG1, kappa) heavy: QVQLQESGPGLVRPSQTLSLTCTVSGYSITSDHAWSWVRQPPGRGLEWIGYISYSGITTYNPSLKSRVTMLRDTSKNQFSLRLSSVTAADTAVYYCARSLARTTAMDYWGQGSLVTVSS[human IgG1 constant region with Q438D (EU numbers) omitted here] light: DIQMTQSPSSLSASVGDRVTITCRASQDISSYLNWYQQKPGKAPKLLIYYTSRLHSGVPSRFSGSGSGTDFTFTISSLQPEDIATYYCQQGNTLPYTFGQGTKVEIKRTVAAPSVFIFPPSDEQLKSGTASVVCLLNNFYPREAKVQWKVDNALQSGNSQESVTEQDSKDSTYSLSSTLTLSKADYEKHKVYACEVTHQGLSSPVTKSFNRGEC | 0.845 | 2.6 | 0.77 |
| MRAH-G1d/MRAL-KT0 Q438E (antibody, human IgG1, kappa) heavy: QVQLQESGPGLVRPSQTLSLTCTVSGYSITSDHAWSWVRQPPGRGLEWIGYISYSGITTYNPSLKSRVTMLRDTSKNQFSLRLSSVTAADTAVYYCARSLARTTAMDYWGQGSLVTVSS[human IgG1 constant region with Q438E (EU numbers) omitted here] light: DIQMTQSPSSLSASVGDRVTITCRASQDISSYLNWYQQKPGKAPKLLIYYTSRLHSGVPSRFSGSGSGTDFTFTISSLQPEDIATYYCQQGNTLPYTFGQGTKVEIKRTVAAPSVFIFPPSDEQLKSGTASVVCLLNNFYPREAKVQWKVDNALQSGNSQESVTEQDSKDSTYSLSSTLTLSKADYEKHKVYACEVTHQGLSSPVTKSFNRGEC | 1.35 | 2.4 | 0.84 |
| MRAH-G1d/MRAL-KT0 Q438G (antibody, human IgG1, kappa) heavy: QVQLQESGPGLVRPSQTLSLTCTVSGYSITSDHAWSWVRQPPGRGLEWIGYISYSGITTYNPSLKSRVTMLRDTSKNQFSLRLSSVTAADTAVYYCARSLARTTAMDYWGQGSLVTVSS[human IgG1 constant region with Q438G (EU numbers) omitted here] light: DIQMTQSPSSLSASVGDRVTITCRASQDISSYLNWYQQKPGKAPKLLIYYTSRLHSGVPSRFSGSGSGTDFTFTISSLQPEDIATYYCQQGNTLPYTFGQGTKVEIKRTVAAPSVFIFPPSDEQLKSGTASVVCLLNNFYPREAKVQWKVDNALQSGNSQESVTEQDSKDSTYSLSSTLTLSKADYEKHKVYACEVTHQGLSSPVTKSFNRGEC | 0.632 | 1.99 | 0.85 |
| MRAH-G1d/MRAL-KT0 Q438H (antibody, human IgG1, kappa) heavy: QVQLQESGPGLVRPSQTLSLTCTVSGYSITSDHAWSWVRQPPGRGLEWIGYISYSGITTYNPSLKSRVTMLRDTSKNQFSLRLSSVTAADTAVYYCARSLARTTAMDYWGQGSLVTVSS[human IgG1 constant region with Q438H (EU numbers) omitted here] light: DIQMTQSPSSLSASVGDRVTITCRASQDISSYLNWYQQKPGKAPKLLIYYTSRLHSGVPSRFSGSGSGTDFTFTISSLQPEDIATYYCQQGNTLPYTFGQGTKVEIKRTVAAPSVFIFPPSDEQLKSGTASVVCLLNNFYPREAKVQWKVDNALQSGNSQESVTEQDSKDSTYSLSSTLTLSKADYEKHKVYACEVTHQGLSSPVTKSFNRGEC | 0.649 | 2.11 | 0.38 |

The remaining lines, values ahead:

| hTRIM21 binding level ratio (variant/control antibody) [1] | mTRIM21 binding level ratio (variant/control antibody) [2] | hFcRn binding level ratio (variant/control antibody) [3] | Binder |
| --- | --- | --- | --- |
| 1.1 | 2.18 | 0.08 | MRAH-G1d/MRAL-KT0 K439V (antibody, human IgG1, kappa) heavy: QVQLQESGPGLVRPSQTLSLTCTVSGYSITSDHAWSWVRQPPGRGLEWIGYISYSGITTYNPSLKSRVTMLRDTSKNQFSLRLSSVTAADTAVYYCARSLARTTAMDYWGQGSLVTVSS[human IgG1 constant region with K439V (EU numbers) omitted here] light: DIQMTQSPSSLSASVGDRVTITCRASQDISSYLNWYQQKPGKAPKLLIYYTSRLHSGVPSRFSGSGSGTDFTFTISSLQPEDIATYYCQQGNTLPYTFGQGTKVEIKRTVAAPSVFIFPPSDEQLKSGTASVVCLLNNFYPREAKVQWKVDNALQSGNSQESVTEQDSKDSTYSLSSTLTLSKADYEKHKVYACEVTHQGLSSPVTKSFNRGEC |
| 0.886 | 1.97 | 0.92 | MRAH-G1d/MRAL-KT0 Q438A (antibody, human IgG1, kappa) heavy: QVQLQESGPGLVRPSQTLSLTCTVSGYSITSDHAWSWVRQPPGRGLEWIGYISYSGITTYNPSLKSRVTMLRDTSKNQFSLRLSSVTAADTAVYYCARSLARTTAMDYWGQGSLVTVSS[human IgG1 constant region with Q438A (EU numbers) omitted here] light: DIQMTQSPSSLSASVGDRVTITCRASQDISSYLNWYQQKPGKAPKLLIYYTSRLHSGVPSRFSGSGSGTDFTFTISSLQPEDIATYYCQQGNTLPYTFGQGTKVEIKRTVAAPSVFIFPPSDEQLKSGTASVVCLLNNFYPREAKVQWKVDNALQSGNSQESVTEQDSKDSTYSLSSTLTLSKADYEKHKVYACEVTHQGLSSPVTKSFNRGEC |
| 0.887 | 1.89 | 1.12 | MRAH-G1d/MRAL-KT0 Q438L (antibody, human IgG1, kappa) heavy: QVQLQESGPGLVRPSQTLSLTCTVSGYSITSDHAWSWVRQPPGRGLEWIGYISYSGITTYNPSLKSRVTMLRDTSKNQFSLRLSSVTAADTAVYYCARSLARTTAMDYWGQGSLVTVSS[human IgG1 constant region with Q438L (EU numbers) omitted here] light: DIQMTQSPSSLSASVGDRVTITCRASQDISSYLNWYQQKPGKAPKLLIYYTSRLHSGVPSRFSGSGSGTDFTFTISSLQPEDIATYYCQQGNTLPYTFGQGTKVEIKRTVAAPSVFIFPPSDEQLKSGTASVVCLLNNFYPREAKVQWKVDNALQSGNSQESVTEQDSKDSTYSLSSTLTLSKADYEKHKVYACEVTHQGLSSPVTKSFNRGEC |
| 0.971 | 1.8 | 0.95 | MRAH-G1d/MRAL-KT0 Q438M (antibody, human IgG1, kappa) heavy: QVQLQESGPGLVRPSQTLSLTCTVSGYSITSDHAWSWVRQPPGRGLEWIGYISYSGITTYNPSLKSRVTMLRDTSKNQFSLRLSSVTAADTAVYYCARSLARTTAMDYWGQGSLVTVSS[human IgG1 constant region with Q438M (EU numbers) omitted here] light: DIQMTQSPSSLSASVGDRVTITCRASQDISSYLNWYQQKPGKAPKLLIYYTSRLHSGVPSRFSGSGSGTDFTFTISSLQPEDIATYYCQQGNTLPYTFGQGTKVEIKRTVAAPSVFIFPPSDEQLKSGTASVVCLLNNFYPREAKVQWKVDNALQSGNSQESVTEQDSKDSTYSLSSTLTLSKADYEKHKVYACEVTHQGLSSPVTKSFNRGEC |
| 0.404 | 1.71 | 0.97 | MRAH-G1d/MRAL-KT0 Q438R (antibody, human IgG1, kappa) heavy: QVQLQESGPGLVRPSQTLSLTCTVSGYSITSDHAWSWVRQPPGRGLEWIGYISYSGITTYNPSLKSRVTMLRDTSKNQFSLRLSSVTAADTAVYYCARSLARTTAMDYWGQGSLVTVSS[human IgG1 constant region with Q438R (EU numbers) omitted here] light: DIQMTQSPSSLSASVGDRVTITCRASQDISSYLNWYQQKPGKAPKLLIYYTSRLHSGVPSRFSGSGSGTDFTFTISSLQPEDIATYYCQQGNTLPYTFGQGTKVEIKRTVAAPSVFIFPPSDEQLKSGTASVVCLLNNFYPREAKVQWKVDNALQSGNSQESVTEQDSKDSTYSLSSTLTLSKADYEKHKVYACEVTHQGLSSPVTKSFNRGEC |
